According to the supplement of paper PMC8728848:
This is one part of the list.

Key:
Assay in all cases: glycan array binding signal (z-score within array); higher = stronger binding
Details in all cases: glycan notation: IUPAC condensed, linker removed
[1] = target: GlcNAc(b1-6)Gal(b1-4)GlcNAc
Summary of the method: (§1)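 Glycan array data came from 3228 arrays in the Consortium for Functional Glycomics database, and only arrays with an available protein sequence were kept. Glycan names were put into IUPAC-condensed notation, and columns mapping to the same glycan were averaged. The binding signal is a within-array Z-score, averaged across arrays of one protein sequence run at different concentrations or buffers and across linkers. A negative Z-score can be read as non-binding.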

GlcNAc(b1-6)GalNAc = target: GlcNAc(b1-6)GalNAc
Summary of the method: as §1

GlcNAc3Prop(b1-4)GlcNAc = target: GlcNAc3Prop(b1-4)GlcNAc
Summary of the method: as §1

[2] = target: GlcNAc6S(b1-3)Gal(b1-4)GlcNAc
Summary of the method: as §1

Kdn(a2-3)Gal(b1-3)GalNAc = target: Kdn(a2-3)Gal(b1-3)GalNAc
Summary of the method: as §1

Kdn(a2-3)Gal(b1-3)GlcNAc = target: Kdn(a2-3)Gal(b1-3)GlcNAc
Summary of the method: as §1

Kdn(a2-3)Gal(b1-4)Glc = target: Kdn(a2-3)Gal(b1-4)Glc
Summary of the method: as §1

Kdn(a2-3)Gal(b1-4)GlcNAc = target: Kdn(a2-3)Gal(b1-4)GlcNAc
Summary of the method: as §1

[3] = target: Kdn(a2-3)Gal(b1-4)[Fuc(a1-3)]GlcNAc
Summary of the method: as §1

Kdn(a2-6)Gal(b1-4)GlcNAc = target: Kdn(a2-6)Gal(b1-4)GlcNAc
Summary of the method: as §1

[4] = target: Man(a1-2)Man(a1-2)Man(a1-3)Man
Summary of the method: as §1

[5] = target: Man(a1-2)Man(a1-2)Man(a1-6)[Man(a1-3)]Man
Summary of the method: as §1

Man(a1-2)Man(a1-3)Man = target: Man(a1-2)Man(a1-3)Man
Summary of the method: as §1

[6] = target: Man(a1-2)Man(a1-3)[Man(a1-2)Man(a1-6)]Man
Summary of the method: as §1

[7] = target: Man(a1-2)Man(a1-3)[Man(a1-2)Man(a1-6)]Man(a1-6)[Man(a1-2)Man(a1-2)Man(a1-3)]Man
Summary of the method: as §1

[8] = target: Man(a1-2)Man(a1-3)[Man(a1-2)Man(a1-6)]Man(a1-6)[Man(a1-2)Man(a1-2)Man(a1-3)]Man(b1-4)GlcNAc(b1-4)GlcNAc
Summary of the method: as §1

[9] = target: Man(a1-2)Man(a1-3)[Man(a1-6)]Man(a1-6)[Man(a1-2)Man(a1-3)]Man(b1-4)GlcNAc(b1-4)GlcNAc
Summary of the method: as §1

[10] = target: Man(a1-2)Man(a1-6)[Man(a1-3)]Man(a1-6)[Man(a1-2)Man(a1-2)Man(a1-3)]Man
Summary of the method: as §1

[11] = target: Man(a1-2)Man(a1-6)[Man(a1-3)]Man(a1-6)[Man(a1-2)Man(a1-2)Man(a1-3)]Man(b1-4)GlcNAc(b1-4)GlcNAc
Summary of the method: as §1

Man(a1-3)[Man(a1-6)]Man = target: Man(a1-3)[Man(a1-6)]Man
Summary of the method: as §1

[12] = target: Man(a1-3)[Man(a1-6)]Man(a1-6)[Man(a1-2)Man(a1-3)]Man(b1-4)GlcNAc(b1-4)GlcNAc
Summary of the method: as §1

[13] = target: Man(a1-3)[Man(a1-6)]Man(a1-6)[Man(a1-3)]Man
Summary of the method: as §1

[14] = target: Man(a1-3)[Man(a1-6)]Man(a1-6)[Man(a1-3)]Man(b1-4)GlcNAc(b1-4)GlcNAc
Summary of the method: as §1

[15] = target: Man(a1-3)[Man(a1-6)]Man(b1-4)GlcNAc(b1-4)GlcNAc
Summary of the method: as §1

Man(a1-6)Man = target: Man(a1-6)Man
Summary of the method: as §1

Man(b1-4)GlcNAc = target: Man(b1-4)GlcNAc
Summary of the method: as §1

Neu5Ac(a2-3)Gal = target: Neu5Ac(a2-3)Gal
Summary of the method: as §1

[16] = target: Neu5Ac(a2-3)Gal(b1-3)GalNAc
Summary of the method: as §1

[17] = target: Neu5Ac(a2-3)Gal(b1-3)GalNAc(b1-3)Gal(a1-4)Gal(b1-4)Glc
Summary of the method: as §1

[18] = target: Neu5Ac(a2-3)Gal(b1-3)GalNAc(b1-3)Gal(b1-4)GlcNAc
Summary of the method: as §1

[19] = target: Neu5Ac(a2-3)Gal(b1-3)GalNAc(b1-4)[Neu5Ac(a2-3)]Gal(b1-4)Glc
Summary of the method: as §1

[20] = target: Neu5Ac(a2-3)Gal(b1-3)GalNAc6S
Summary of the method: as §1

[21] = target: Neu5Ac(a2-3)Gal(b1-3)GlcNAc
Summary of the method: as §1

[22] = target: Neu5Ac(a2-3)Gal(b1-3)GlcNAc(b1-2)Man(a1-3)[Neu5Ac(a2-3)Gal(b1-3)GlcNAc(b1-2)Man(a1-6)]Man(b1-4)GlcNAc(b1-4)GlcNAc
Summary of the method: as §1

[23] = target: Neu5Ac(a2-3)Gal(b1-3)GlcNAc(b1-3)Gal(b1-3)GlcNAc
Summary of the method: as §1

[24] = target: Neu5Ac(a2-3)Gal(b1-3)GlcNAc(b1-3)Gal(b1-4)GlcNAc
Summary of the method: as §1

[25] = target: Neu5Ac(a2-3)Gal(b1-3)GlcNAc(b1-3)GalNAc
Summary of the method: as §1

[26] = target: Neu5Ac(a2-3)Gal(b1-3)GlcNAc6S
Summary of the method: as §1

[27] = target: Neu5Ac(a2-3)Gal(b1-3)[Fuc(a1-4)]GlcNAc
Summary of the method: as §1

[28] = target: Neu5Ac(a2-3)Gal(b1-3)[Fuc(a1-4)]GlcNAc(b1-3)Gal(b1-3)[Fuc(a1-4)]GlcNAc
Summary of the method: as §1

[29] = target: Neu5Ac(a2-3)Gal(b1-3)[Fuc(a1-4)]GlcNAc(b1-3)Gal(b1-4)[Fuc(a1-3)]GlcNAc
Summary of the method: as §1

[30] = target: Neu5Ac(a2-3)Gal(b1-3)[Neu5Ac(a2-3)Gal(b1-4)]GlcNAc
Summary of the method: as §1

[31] = target: Neu5Ac(a2-3)Gal(b1-3)[Neu5Ac(a2-6)]GalNAc
Summary of the method: as §1

Neu5Ac(a2-3)Gal(b1-4)Glc = target: Neu5Ac(a2-3)Gal(b1-4)Glc
Summary of the method: as §1

[32] = target: Neu5Ac(a2-3)Gal(b1-4)GlcNAc
Summary of the method: as §1

[33] = target: Neu5Ac(a2-3)Gal(b1-4)GlcNAc(b1-2)Man(a1-3)[GlcNAc(b1-2)Man(b1-4)GlcNAc(b1-2)Man(a1-6)]Man(b1-4)GlcNAc(b1-4)GlcNAc
Summary of the method: as §1

[34] = target: Neu5Ac(a2-3)Gal(b1-4)GlcNAc(b1-2)Man(a1-3)[Neu5Ac(a2-6)Gal(b1-4)GlcNAc(b1-2)Man(a1-6)]Man(b1-4)GlcNAc(b1-4)GlcNAc
Summary of the method: as §1

[35] = target: Neu5Ac(a2-3)Gal(b1-4)GlcNAc(b1-3)Gal(b1-3)GlcNAc
Summary of the method: as §1

[36] = target: Neu5Ac(a2-3)Gal(b1-4)GlcNAc(b1-3)Gal(b1-4)GlcNAc
Summary of the method: as §1

[37] = target: Neu5Ac(a2-3)Gal(b1-4)GlcNAc(b1-3)Gal(b1-4)GlcNAc(b1-3)Gal(b1-4)GlcNAc
Summary of the method: as §1

[38] = target: Neu5Ac(a2-3)Gal(b1-4)GlcNAc(b1-3)Gal(b1-4)[Fuc(a1-3)]GlcNAc
Summary of the method: as §1

[39] = target: Neu5Ac(a2-3)Gal(b1-4)GlcNAc(b1-3)GalNAc
Summary of the method: as §1

[40] = target: Neu5Ac(a2-3)Gal(b1-4)GlcNAc(b1-6)[Gal(b1-3)]GalNAc
Summary of the method: as §1

[41] = target: Neu5Ac(a2-3)Gal(b1-4)GlcNAc(b1-6)[Neu5Ac(a2-3)Gal(b1-3)]GalNAc
Summary of the method: as §1

[42] = target: Neu5Ac(a2-3)Gal(b1-4)GlcNAc6S
Summary of the method: as §1

[43] = target: Neu5Ac(a2-3)Gal(b1-4)[Fuc(a1-3)]GlcNAc
Summary of the method: as §1

[44] = target: Neu5Ac(a2-3)Gal(b1-4)[Fuc(a1-3)]GlcNAc(b1-3)Gal
Summary of the method: as §1

B1: CLEC-1 (Homo sapiens), Q9NZH3 (protein)
chain: MQAKYSSTRDMLDDDGDTTMSLHSQASATTRHPEPRRTEHRAPSSTWRPVALTLLTLCLVLLIGLAAWGLLFFQYYQLSNTGQDTISQMEERLGNTSQELQSLQVQNIKLAGSLQHVAEKLCRELYNKAGAHRCSPCTEQWKWHGDNCYQFYKDSKSWEDCKYFCLSENSTMLKINKQEDLEFAASQSYSEFFYSYWTGLLRPDSGKAWLWMDGTPFTSELFHIIIDVTSPRSRDCVAILNGMIFSKDCKELKRCVCERRAGMVKPESLHVPPETLGEGD
[1]
  glycan array binding signal (z-score): 0.492
GlcNAc(b1-6)GalNAc
  glycan array binding signal (z-score): -0.226
GlcNAc3Prop(b1-4)GlcNAc
  glycan array binding signal (z-score): -0.093
[2]
  glycan array binding signal (z-score): -0.134
Kdn(a2-3)Gal(b1-3)GalNAc
  glycan array binding signal (z-score): -0.214
Kdn(a2-3)Gal(b1-3)GlcNAc
  glycan array binding signal (z-score): -0.462
Kdn(a2-3)Gal(b1-4)Glc
  glycan array binding signal (z-score): 0.125
Kdn(a2-3)Gal(b1-4)GlcNAc
  glycan array binding signal (z-score): 0.004
[3]
  glycan array binding signal (z-score): 0.006
Kdn(a2-6)Gal(b1-4)GlcNAc
  glycan array binding signal (z-score): -0.53
[4]
  glycan array binding signal (z-score): -0.228
[5]
  glycan array binding signal (z-score): -0.399
Man(a1-2)Man(a1-3)Man
  glycan array binding signal (z-score): -0.141
[6]
  glycan array binding signal (z-score): -0.143
[7]
  glycan array binding signal (z-score): -0.596
[8]
  glycan array binding signal (z-score): -0.155
[9]
  glycan array binding signal (z-score): -0.278
[10]
  glycan array binding signal (z-score): -0.28
[11]
  glycan array binding signal (z-score): -0.285
Man(a1-3)[Man(a1-6)]Man
  glycan array binding signal (z-score): -0.319
[12]
  glycan array binding signal (z-score): 0.433
[13]
  glycan array binding signal (z-score): -0.502
[14]
  glycan array binding signal (z-score): -0.228
[15]
  glycan array binding signal (z-score): -0.543
Man(a1-6)Man
  glycan array binding signal (z-score): -0.495
Man(b1-4)GlcNAc
  glycan array binding signal (z-score): -0.245
Neu5Ac(a2-3)Gal
  glycan array binding signal (z-score): -0.021
[16]
  glycan array binding signal (z-score): -0.25
[17]
  glycan array binding signal (z-score): 1.29
[18]
  glycan array binding signal (z-score): -0.135
[19]
  glycan array binding signal (z-score): -0.378
[20]
  glycan array binding signal (z-score): -0.175
[21]
  glycan array binding signal (z-score): -0.199
[22]
  glycan array binding signal (z-score): -0.325
[23]
  glycan array binding signal (z-score): -0.25
[24]
  glycan array binding signal (z-score): -0.576
[25]
  glycan array binding signal (z-score): -0.439
[26]
  glycan array binding signal (z-score): -0.373
[27]
  glycan array binding signal (z-score): -0.39
[28]
  glycan array binding signal (z-score): -0.196
[29]
  glycan array binding signal (z-score): -0.255
[30]
  glycan array binding signal (z-score): -0.558
[31]
  glycan array binding signal (z-score): 0.011
Neu5Ac(a2-3)Gal(b1-4)Glc
  glycan array binding signal (z-score): -0.377
[32]
  glycan array binding signal (z-score): -0.451
[33]
  glycan array binding signal (z-score): -0.588
[34]
  glycan array binding signal (z-score): -0.284
[35]
  glycan array binding signal (z-score): -0.293
[36]
  glycan array binding signal (z-score): -0.229
[37]
  glycan array binding signal (z-score): -0.383
[38]
  glycan array binding signal (z-score): -0.157
[39]
  glycan array binding signal (z-score): -0.713
[40]
  glycan array binding signal (z-score): -0.136
[41]
  glycan array binding signal (z-score): -0.142
[42]
  glycan array binding signal (z-score): -0.276
[43]
  glycan array binding signal (z-score): -0.145
[44]
  glycan array binding signal (z-score): -0.28
